Source: the supplement of paper PMC10369915
The list shows a part of the results. No stated cut-off is given here; in the data, active = 3.2 or more and inactive = the rest. Only a few entries rise above the background.

How the values were obtained:
Test in all cases: enrichment score (SH2-bound / input frequency) (ratio); bacterial display of known human phosphotyrosine sites (pTyr-Var adds point mutants) read by sequencing; higher = stronger binding; tyrosines were phosphorylated by kinases first
Conditions in all cases: peptide library: pTyr-Var
[1] = target: SHP2 C-SH2 domain E139D
[2] = target: SHP2 C-SH2 domain wild-type
[3] = target: SHP2 N-SH2 domain L43F
[4] = target: SHP2 N-SH2 domain T42A
[5] = target: SHP2 N-SH2 domain T52S
[6] = target: SHP2 N-SH2 domain wild-type

Measured: enrichment score
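Further: displayed peptides selected on beads carrying the immobilized SH2 domain, with library peptides lacking any tyrosine serving as negative controls.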

B1: CENPF_Y1920_E1915A (peptide)
chain: AHEALYLEADL
inactive: [1] 0.747 | [2] 0.77 | [3] 0.848 | [4] 0.761 | [5] 0.708 | [6] 1.1

B2: CENPF_Y700 (peptide)
chain: TQKLAYMELQQ
inactive: [1] 0.778 | [2] 1.06 | [3] 2.1 | [4] 2.83 | [5] 1.96 | [6] 1.26

B3: CEP120_Y884 (peptide)
chain: QMRLRYLAAEE
inactive: [1] 1.23 | [2] 1.01 | [3] 0.814 | [4] 0.688 | [5] 0.722 | [6] 0.925

B4: CEP43_Y267 (peptide)
chain: KPEKTYGLRKE
inactive: [1] 1.06 | [2] 0.978 | [3] 0.885 | [4] 0.87 | [5] 0.902 | [6] 0.942

B5: CERT1_Y143 (peptide)
chain: SGASGYSATST
inactive: [1] 0.368 | [2] 0.478 | [3] 0.407 | [4] 0.388 | [5] 0.385 | [6] 0.413

B6: CERT1_Y143_S138C (peptide)
chain: CGASGYSATST
inactive: [1] 0.682 | [2] 0.869 | [3] 0.735 | [4] 0.664 | [5] 0.525 | [6] 0.913

B7: CFAP221_Y798 (peptide)
chain: FPMLNYKDIRK
inactive: [1] 0.874 | [2] 0.947 | [3] 1.03 | [4] 0.703 | [5] 1.27 | [6] 0.97

B8: CFAP221_Y798_M795I (peptide)
chain: FPILNYKDIRK
inactive: [1] 1.06 | [2] 0.8 | [3] 1.11 | [4] 0.992 | [5] 0.788 | [6] 0.855

B9: CFAP410_Y68 (peptide)
chain: RLSELYLRRNR
inactive: [1] 0.23 | [2] 0.196 | [3] 0.402 | [4] 0.24 | [5] 0.234 | [6] 0.217

B10: CFAP47_Y557 (peptide)
chain: AKRKNYAPVAM
inactive: [1] 0.639 | [2] 0.615 | [3] 0.692 | [4] 0.528 | [5] 0.826 | [6] 0.661

B11: CFAP47_Y557_A561T (peptide)
chain: AKRKNYAPVTM
inactive: [1] 0.931 | [2] 0.838 | [3] 0.71 | [4] 0.585 | [5] 0.644 | [6] 0.552

B12: CFH_Y1008_A1010T (peptide)
chain: EKKDVYKTGEQ
inactive: [1] 0.351 | [2] 0.394 | [3] 0.527 | [4] 0.398 | [5] 0.396 | [6] 0.261

B13: CFH_Y1008_V1007L (peptide)
chain: EKKDLYKAGEQ
inactive: [1] 0.668 | [2] 0.627 | [3] 0.74 | [4] 0.58 | [5] 0.533 | [6] 0.917

B14: CFI_Y421 (peptide)
chain: IFHENYNAGTY
inactive: [1] 1.16 | [2] 0.818 | [3] 0.948 | [4] 0.724 | [5] 1.01 | [6] 0.897

B15: CFTR_Y512_D513G_YF (peptide)
chain: IFGVSYGEFRF
inactive: [1] 2.07 | [2] 2.02 | [3] 2 | [4] 2.55 | [5] 2.08 | [6] 2.09

B16: CFTR_Y515_D513G_YF (peptide)
chain: VSFGEYRFRSV
inactive: [1] 0.711 | [2] 0.593 | [3] 0.668 | [4] 0.653 | [5] 0.749 | [6] 0.904

B17: CFTR_Y515_V520F (peptide)
chain: VSYDEYRYRSF
inactive: [1] 0.609 | [2] 0.661 | [3] 0.539 | [4] 0.605 | [5] 0.467 | [6] 0.567

B18: CFTR_Y515_V520F_YF (peptide)
chain: VSFDEYRFRSF
inactive: [1] 0.786 | [2] 0.658 | [3] 0.671 | [4] 0.607 | [5] 0.686 | [6] 0.867

B19: CFTR_Y517 (peptide)
chain: YDEYRYRSVIK
inactive: [1] 0.717 | [2] 0.787 | [3] 0.765 | [4] 0.792 | [5] 0.593 | [6] 0.792
